{"source": "ChEMBL document CHEMBL1201862", "about": "“PubChem BioAssay data set” (2004)", "note": "Several values for one entry are separate records, joined by “and”; a condition that tells them apart may be missing. Identical values can stand only once.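 Assay format: 96-well plates, 48-hour exposure. Abbreviation: GI50, concentration required for 50% inhibition of growth.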 Activity calls are given as the source filed them. No stated cut-off is given here; in the data, active = GI50 up to about 1.1 µM and inactive = higher."}
{"tested_on": "NCI-H322M", "experiment": "DTP human tumour cell line panel, 48 h"}
{"smiles": "N#Cc1c(N2CCCC2)nsc1Nc1ccc(F)cc1", "GI50": "inactive: > 100 µM"}
{"smiles": "Cc1ccc2c(=O)c3c(O)c4c(cc3n(C)c2c1)OC(C)(C)C=C4", "GI50": "inactive: > 10 µM"}
{"smiles": "O=C(OC(=C(c1ccccc1)c1ccccc1)N1CCCC1=S)C(c1ccccc1)c1ccccc1", "GI50": "inactive: 6.22 µM"}
{"smiles": "CN(C)/C=N/c1ccc2[nH]c3ccccc3c2c1", "GI50": "inactive: 43.7 µM"}
{"smiles": "C=C(c1ccccc1)[C@@]1(O)CCCC[C@H]1NC(c1ccccc1)c1ccccc1", "GI50": "inactive: 16.2 µM"}
{"smiles": "C[C@H](c1ccccc1)N1C(=O)[C@@H](O)[C@H]1[C@H](CO)OCc1ccccc1", "GI50": "inactive: > 100 µM"}
{"smiles": "COc1ccc(C(=O)Sc2c(-c3ccccc3)c(=O)n(-c3ccccc3)c(=S)n2-c2ccccc2)cc1", "GI50": "inactive: > 100 µM"}
{"smiles": "COc1cc2c(cc1OC)C(C(=O)c1cccc(OC)c1OC)C(=O)N(C)CC2", "note": "(centres undefined)", "GI50": "inactive: > 100 µM"}
{"smiles": "CC1=C(C)C(=O)c2c(cc3c4ccccc4ccn23)C1=O", "GI50": "inactive: > 100 µM"}
{"smiles": "C=CCN1C(=O)/C(=C/c2ccc(Cl)cc2)N=C1SC1OC(COC(C)=O)C(OC(C)=O)C(OC(C)=O)C1OC(C)=O", "note": "(centres undefined)", "GI50": "inactive: 28.4 µM and inactive: 23.2 µM"}
{"smiles": "O=c1c2ccc3cccc4c(=O)cc(c5ccccc15)-c2c34", "GI50": "inactive: > 100 µM"}
{"smiles": "Oc1c(C2=N[C@H]3CCCC[C@@H]3N2)ccc2ccccc12", "GI50": "inactive: > 100 µM"}
{"smiles": "CSc1c(C#N)c(S)[nH]c(=O)c1C#N", "GI50": "inactive: 67.5 µM"}
{"smiles": "CN(C)CCONC(=O)C12CC3CC(CC(C3)C1)C2", "GI50": "inactive: > 100 µM"}
{"smiles": "CC1=NN(C(=O)c2ccccc2)C(=O)C1/N=N/c1ccccc1C(=O)O", "note": "(centres undefined)", "GI50": "inactive: 27.6 µM"}
{"smiles": "COc1ccc(/C=C(/c2ccc(OC)cc2)c2c(Cl)cc(Cl)c(/C(=C\\c3ccc(OC)cc3)c3ccc(OC)cc3)c2/N=N/c2ccccc2)cc1", "GI50": "inactive: > 100 µM"}
{"smiles": "Cc1cc(NS(=O)(=O)c2ccc(Nc3c4ccccc4nc4c(C(=O)Nc5ccc(S(=O)(=O)N=C(N)N)cc5)cccc34)cc2)no1", "GI50": "inactive: > 100 µM"}
{"smiles": "Cn1c(CO)ccc1-c1ccc(-c2ccc[se]2)[se]1", "GI50": "inactive: 24.2 µM"}
{"smiles": "O=C(CC(C(=O)c1ccsc1)c1ccccc1)c1cccs1", "note": "(centres undefined)", "GI50": "inactive: > 100 µM"}
{"smiles": "CN(CCCN(C)CCc1ccc(Cl)c(Cl)c1)CCCN1CCCC1", "GI50": "inactive: 1.71 µM"}
{"smiles": "CCCNC1=Nc2ccccc2N(Cc2ccccc2)CC1", "GI50": "inactive: 31.4 µM"}
{"smiles": "COc1cc(C(=O)C/C(CCC(=O)Nc2ccc(Cl)cc2Cl)=N/NC(=O)C(=O)NN)ccc1O", "GI50": "inactive: > 100 µM"}
{"smiles": "COc1ccc(C(O)(c2ccccc2)c2nccc3ccccc23)cc1", "note": "(centres undefined)", "GI50": "inactive: 8.89 µM"}
{"smiles": "COC(=O)C1=C(C)NC(C)=C(C(=O)OC)C1c1ccccc1NO", "GI50": "inactive: > 100 µM"}
{"smiles": "CC1CC[C@@]2(OC1)OC1C[C@H]3[C@@H]4CC[C@H]5CC(OC6OC(CO)C(OC7OC(CO)C(O)C(O)C7O)C(O)C6O)CCC5(C)[C@H]4CCC3(C)C1[C@@H]2C", "note": "(some centres undefined)", "GI50": "inactive: 9.02 µM"}
{"smiles": "Clc1c(Cl)c2c(Cl)c(Cl)c1C[PH](c1ccccc1)(c1ccccc1)CC[PH](c1ccccc1)(c1ccccc1)Cc1c(Cl)c(Cl)c(c(Cl)c1Cl)C[PH](c1ccccc1)(c1ccccc1)CC[PH](c1ccccc1)(c1ccccc1)C2", "GI50": "inactive: 3.53 µM"}
{"smiles": "CC1(C)CC2(C)CC1CC2NC(=O)CCN1CCOCC1", "note": "(centres undefined)", "GI50": "inactive: > 100 µM"}
{"smiles": "N=C(N)NCCCCCCC(=O)NC(O)C(=O)NCCCCNCCCN", "note": "(centres undefined)", "GI50": "inactive: > 750 µM"}
{"smiles": "Cc1ccc(NC(=O)CC/C(CC(=O)C(C)(C)C)=N/NC(=O)C[N+](C)(C)C)cc1C", "GI50": "inactive: > 100 µM"}
{"smiles": "Cc1ccc([N+](=O)[O-])cc1NC(=O)C(=O)C(C(=O)c1ccccc1F)C1OC(=O)c2ccccc21", "note": "(centres undefined)", "GI50": "inactive: 36.1 µM"}
{"smiles": "CCNC1CC(C(C)(C)NCC)CC=C1C", "note": "(centres undefined)", "GI50": "inactive: > 100 µM"}
{"smiles": "NC1=CN(Cc2ccccc2)C2=N/C(=C\\c3ccccc3O)C(=O)N12", "GI50": "inactive: > 100 µM"}
{"smiles": "CCN1CCC(C)OP1(=O)Cc1ccccc1", "note": "(centres undefined)", "GI50": "inactive: > 100 µM"}
{"smiles": "CC(C)(C)C1CC[C@H](O)[C@H]([C@H](O)CC2CC(=O)N(c3ccccc3)C(=O)C2)C1", "note": "(some centres undefined)", "GI50": "inactive: > 100 µM"}
{"smiles": "COc1cc(/C=C2\\N=C(c3ccccc3)N(c3cc4cc(Sc5ccccc5)ccc4[nH]3)C2=O)ccc1O", "GI50": "inactive: > 50 µM"}
{"smiles": "CCC(=O)n1c(=O)n(-c2ccc([N+](=O)[O-])cc2)c(=O)n1C(=O)CC", "GI50": "inactive: > 100 µM"}
{"smiles": "Nc1cc2ncnn2c(SCC(=O)N/N=C/C(Br)=C\\c2ccccc2)n1", "GI50": "inactive: 22.1 µM"}
{"smiles": "Cc1c(C(=O)CC(=O)C(=O)Nc2ccccc2C(F)(F)F)[n+]([O-])c2ccccc2[n+]1[O-]", "GI50": "inactive: 21.4 µM"}
{"smiles": "OCC(O)CNc1ncnc2ccccc12", "note": "(centres undefined)", "GI50": "inactive: > 100 µM"}
{"smiles": "CC(C)c1cc(Cl)nc(Cl)n1", "GI50": "inactive: > 100 µM"}
{"smiles": "CC[C@](C)(O)C(=O)O[C@H]1C(=O)O[C@@H]2C[C@H]3C(C)=C[C@H](O)[C@@H](O)[C@]3(C)[C@H]3[C@@]4(O)OC[C@]32[C@@H]1[C@@H](C)[C@H]4O", "GI50": "inactive: 99.8 µM"}
{"smiles": "Cc1cccc(/N=N/c2ccc(/N=N/c3c(O)ccc4ccccc34)cc2C)c1", "GI50": "inactive: > 100 µM"}
{"smiles": "C=CCC(O[Si](C)(C)C(C)(C)C)c1cc(O[Si](C)(C)C(C)(C)C)ccc1OC", "note": "(centres undefined)", "GI50": "inactive: > 100 µM"}
{"smiles": "C=C1CC[C@@H]2[C@](C)(COC(=O)CCC(=O)OC)CCC[C@@]2(C)[C@@H]1CCC1=CC(=O)OC1", "GI50": "inactive: > 100 µM"}
{"smiles": "C/C(=N\\O)c1cccc(Nc2nc3ccccc3c3occc23)c1", "GI50": "inactive: 13.2 µM"}
{"smiles": "COC(=O)c1ccccc1C1CN=NC12Cc1c(C)cccc1C2=O", "note": "(centres undefined)", "GI50": "inactive: > 100 µM"}
{"smiles": "CC1OC(CC2C=CCc3c(O)c4c(c(O)c32)C(=O)c2ccccc2C4=O)CC(NC(=O)C(F)(F)F)C1O", "note": "(centres undefined)", "GI50": "inactive: 5.86 µM"}
{"smiles": "CNC(=S)N/N=C(\\C)c1ccc(OC)cc1O", "GI50": "inactive: > 100 µM"}
{"smiles": "COC(=O)C1Cc2c([nH]c3ccccc23)-c2[nH]c3ccccc3c2CC(NC(C)=O)C(=O)N2CCCC2C(=O)N1", "note": "(centres undefined)", "GI50": "inactive: > 100 µM"}
{"smiles": "COC1=C(C)C(=O)c2c(cc3c(c2O)C(C)(CCC=C(C)C)C(C)O3)C1=O", "note": "(centres undefined)", "GI50": "inactive: 19.2 µM"}
{"smiles": "COP(=O)(OC)C(Nc1ccc(Cc2ccc(NC(c3ccco3)P(=O)(OC)OC)cc2)cc1)c1ccco1", "note": "(centres undefined)", "GI50": "inactive: 27.9 µM"}
{"smiles": "Cc1ccc(C(=O)N2c3ccccc3N(C)n3cccc3C2CC(=O)O)cc1", "note": "(centres undefined)", "GI50": "inactive: > 100 µM"}
{"smiles": "O=C(OCc1c(-c2ccccc2)nn(-c2ccccc2)c1COC(=O)Oc1ccccc1)Oc1ccccc1", "GI50": "inactive: > 100 µM"}
{"smiles": "O=C1C(=O)C(CCCO)(CCCO)CCCCCCCCC1(CCCO)CCCO", "GI50": "inactive: > 100 µM"}
{"smiles": "Cc1ccc(/N=N\\c2c(O)c(S(=O)(=O)O)cc3cc(S(=O)(=O)O)ccc23)c(C)c1", "GI50": "inactive: > 100 µM"}
{"smiles": "O=C(O)Cc1cccc2c(=O)c3ccccc3oc12", "GI50": "inactive: > 100 µM"}
{"smiles": "C=C1C(=O)O[C@H]2C3OC3(C)CC/C=C(/C(=O)OC)[C@@H](OC(C)=O)[C@H](OC(=O)C3(C)OC3C)[C@H]12", "note": "(some centres undefined)", "GI50": "inactive: 5.93 µM"}
{"smiles": "CC1(C)CC[C@]2(C(=O)O)CCC3(C)C(=CCC4[C@@]5(C)CC[C@H](OC6OCC(O)C(O)C6OC6OC(CO)C(O)C(O)C6O)C(C)(C)C5CC[C@]43C)C2C1", "note": "(some centres undefined)", "GI50": "inactive: 2.07 µM"}
{"smiles": "COc1cc(/C=C2\\[C@@H]3NC(Cc4c(OC)c(C)c(OC)c(OC)c43)C(=O)N2Cc2ccccc2)c(OC)c(C)c1OC", "GI50": "inactive: 80.5 µM"}
